Source: PubChem BioAssay AID2147 (National Center for Advancing Translational Sciences (NCATS), 2009)
Where “and” joins values, the source holds several entries; their conditions need not be identical. Equal values may be shown once. The campaign covered roughly 230,000 compounds. About 3,600 (1.6%) were called active. Inconclusive means that the source gave no clear call. Such entries were picked first, then a sample of the others. The call rests on the fitted dose curve; in most records, active means well fitted inhibition curve with a large enough effect (not every such curve was filed as active); inconclusive means small, poorly fitted or top-dose-only effect, or another doubt; inactive means no such curve, though single readings can be large or run the other way. Potencies of inconclusive entries are doubtful fits and often do not repeat.

Target: Lysine-specific demethylase 4E (Homo sapiens) (UniProt B2RXH2)
UniProt B2RXH2, sequence (B2RXH2 whole entry, looked up, the tested form may be a part): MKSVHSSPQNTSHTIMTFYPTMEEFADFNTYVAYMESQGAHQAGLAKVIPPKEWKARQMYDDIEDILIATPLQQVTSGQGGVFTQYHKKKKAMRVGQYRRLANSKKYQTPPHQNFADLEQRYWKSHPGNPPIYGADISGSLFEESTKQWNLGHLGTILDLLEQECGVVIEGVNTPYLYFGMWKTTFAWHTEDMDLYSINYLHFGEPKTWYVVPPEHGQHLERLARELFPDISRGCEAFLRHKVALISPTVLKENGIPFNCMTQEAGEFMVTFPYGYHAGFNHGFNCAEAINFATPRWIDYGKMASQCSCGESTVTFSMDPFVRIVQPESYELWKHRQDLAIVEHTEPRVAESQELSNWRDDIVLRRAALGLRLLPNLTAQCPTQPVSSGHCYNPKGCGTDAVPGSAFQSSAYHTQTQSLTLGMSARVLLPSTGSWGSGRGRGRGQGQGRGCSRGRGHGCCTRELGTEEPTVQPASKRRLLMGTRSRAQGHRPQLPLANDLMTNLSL
Assay: qHTS Assay for Inhibitors of Human Jumonji Domain Containing 2E (JMJD2E)
Details: JMJD2E catalytic domain, FDH-coupled NADH fluorescence (FDH is formaldehyde dehydrogenase); series mostly up to 57.1 µM
Further: nearly all actives have a fitted effect of over 50% in size.
Potency means the concentration at half of the fitted maximal effect; tags describe the fitted curve by direction and shape.

SMILES | Potency
COc1ccc(/C=C\C(=O)CC(O)(c2ccccc2)C(F)(F)F)cc1 (stereo unspecified) | inconclusive: 39.8 µM [inhibitor, single point]
Cc1ccc(/C=C2\SC(=S)N(C(Cc3ccccc3)C(=O)O)C2=O)cc1 (stereo unspecified) | inactive
O=C(NCc1ccccc1)N(Cc1cc2cc3c(cc2[nH]c1=O)OCO3)CC1CCCO1 (stereo unspecified) | inconclusive: 28.2 µM [inhibitor, partial curve]
CC(C)CN1CC(C(=O)O)CC1=O (stereo unspecified) | inactive
CC(=O)Oc1ccc(-c2ccc(C(=O)Nc3cccc(S(=O)(=O)N4CCOCC4)c3)cc2)cc1 | inconclusive: 35.5 µM [inhibitor, single point]
COc1cc(C(=O)Nc2nc3ccc(C)cc3s2)ccc1OCc1c(C)noc1C | inconclusive: 35.5 µM [inhibitor, single point]
Nc1c(C(=O)N/N=C/c2ccc([N+](=O)[O-])cc2)sc2nnc(-c3ccccc3)c(-c3ccccc3)c12 | inactive
Cc1ccc(C(=O)N/N=C\c2ccc(-c3ccc(Cl)cc3)o2)cn1 | inconclusive: 35.5 µM [inhibitor, single point]
Cc1ccc(N2CC(C(=O)NCCC(C)C)CC2=O)cc1 (stereo unspecified) | inactive
c1ccc(-c2nc(N3CCCCCC3)nc(-n3ccnc3)n2)cc1 | inactive
Cn1c(COc2cccc3cccnc23)nnc1SCC(=O)O | inconclusive: 39.8 µM [inhibitor, single point]
O=C(N/N=C/C(Cl)=C/c1ccc([N+](=O)[O-])cc1)C(=O)Nc1ccc(C(=O)O)cc1 | inactive
CCOC(=O)c1cc2c(=O)n3cccc(C)c3nc2n(Cc2ccccc2Cl)c1=N | inconclusive: 25.1 µM [inhibitor, partial curve]
O=C1Nc2ccc(S(=O)(=O)NCc3ccccn3)c3cccc1c23 | inconclusive: 31.6 µM [inhibitor, partial curve]
CCCn1c(-c2cccs2)nc2c1c(=O)[nH]c(=O)n2Cc1ccccc1 | inconclusive: 14.1 µM [inhibitor, partial curve]
CN1CCN(c2c(F)cc3c(=O)c(C(=O)O)cn4c3c2SCC4)CC1 | inconclusive: 28.2 µM [inhibitor, partial curve] and inconclusive: 31.6 µM [inhibitor, partial curve]
Cc1ccc(NC(=O)Nc2cnccn2)cc1C | inconclusive: 25.1 µM [inhibitor, single point]
CCOC(=O)c1cnc(-c2cccc(OC)c2)[nH]c1=O | inconclusive: 39.8 µM [inhibitor, single point]
CC(C)=CCc1c2c(c3occ(-c4ccc(O)cc4)c(=O)c3c1O)C=CC(C)(C)O2 | inactive
COCCNc1oc(-c2ccc(F)cc2)nc1C#N | inconclusive: 28.2 µM [inhibitor, partial curve]
Cn1c(=O)c2c(nc(SCC(=O)c3ccccc3F)n2C)n(C)c1=O | inactive
COc1cc(/C=N/n2c(-c3ccccc3)n[nH]c2=S)ccc1O | active: 25.1 µM
CCOc1cc(CNc2cccc3ccccc23)cc(Br)c1OCC(=O)NC(C)(C)C | inconclusive: 12.6 µM [inhibitor, partial curve]
Cc1ccc(-n2ncc3c(=O)n(CC(=O)N4CCCCCC4)cnc32)cc1 | inconclusive: 35.5 µM [inhibitor, single point]

SMILES | Potency
CCCCS(=O)CC(COC)OC(=O)c1ccccc1 (stereo unspecified) | inactive
O=C(Nc1ccc(O)cc1)c1cc2ccccc2c(=O)s1 | inactive
O=C(OCC(=O)N1N=C(c2ccc(Cl)cc2)CC1c1ccco1)c1ccco1 (stereo unspecified) | inconclusive: 28.2 µM [inhibitor, single point]
C[N+]1(CC(=O)OCCCc2ccccc2)CCCC1 | inconclusive: 28.2 µM [inhibitor, single point]
COCCn1c(N)c(C(=O)OCc2ccccc2)c2nc3ccccc3nc21 | inconclusive: 6.31 µM [inhibitor, single point]
CCC(=O)N1N=C(c2cccs2)CC1c1ccco1 (stereo unspecified) | inconclusive: 28.2 µM [inhibitor, single point]
CCOC(=O)C1=C(C)OC(N)=C(C#N)C1c1c(C)nn(-c2ccccc2)c1Cl (stereo unspecified) | inconclusive: 35.5 µM [inhibitor, single point]
Cc1cc(SCC(=O)c2ccc(O)c(O)c2)nc2ccccc12 | inconclusive: 31.6 µM [inhibitor, single point]
Nc1ccc2c(c1Cl)C(=O)c1ccc(N)c(Cl)c1C2=O | inactive
Cc1csc2nc3cc(C(N)=O)ccc3c(=O)n12 | inconclusive: 31.6 µM [inhibitor, partial curve]
CCOc1ccc(NC(=O)C2CC(=O)OC2c2ccccc2)cc1 (stereo unspecified) | inactive
COc1ccc(C2CC(c3ccccc3)=NN2c2ccc(S(N)(=O)=O)cc2)cc1 (stereo unspecified) | inconclusive: 25.1 µM [inhibitor, partial curve]
CCCCC(CC(O)COCCC)c1n[nH]c(=S)n1-c1ccccc1 (stereo unspecified) | inconclusive: 15.8 µM [inhibitor, single point]
CCOc1ccc(/C=C2\NC(=S)NC2=O)cc1 | inactive
CC(C)n1c(-c2ccc(N(C)C)cc2)nc2ccccc21 | inconclusive: 28.2 µM [inhibitor, partial curve]
O=C(COC(=O)c1c2ccccc2cc2ccccc12)Nc1ncc(C(F)(F)F)cc1Cl | inconclusive: 17.8 µM [inhibitor, partial curve]
CCc1nccn1C(=O)c1cnn2c(C(F)F)cc(-c3ccccc3)nc12 | inconclusive: 22.4 µM [inhibitor, partial curve]
CC1CCN(c2ccc(NC(=S)NC(=O)c3ccc(-c4cccc([N+](=O)[O-])c4)o3)cc2)CC1 | inactive
CCNC(=S)NS(=O)(=O)c1ccc(CC)cc1 | inactive
Cc1ccc(-n2c(C)cc(C(=O)CSc3nncs3)c2C)cc1 | inconclusive: 35.5 µM [inhibitor, single point]
CN(C)c1ccc(/C=N/NC(=O)c2cccc(C(=O)N/N=C/c3ccc(N(C)C)cc3)n2)cc1 | inactive
C=CCc1cccc(CNc2nc3ccccc3n2CCC)c1O | inactive
COCCNc1nc(C)nc2c1nc(-c1ccccc1)n2CCCN1CCCCC1C (stereo unspecified) | inconclusive: 28.2 µM [inhibitor, partial curve]
COc1ccc(N2C(=O)c3ccccc3NC2c2ccc(OC)c(COc3ccccn3)c2)cc1 (stereo unspecified) | inconclusive: 28.2 µM [inhibitor, partial curve]

SMILES | Potency
Nc1ncnc(Sc2ncccn2)c1[N+](=O)[O-] | inconclusive: 31.6 µM [inhibitor, single point]
CCCCN(CCCC)CC(O)Cn1c2ccccc2c(=O)c2ccccc21 (stereo unspecified) | inconclusive: 28.2 µM [inhibitor, partial curve]
Cc1cc(Br)ccc1OCCCCN1CCC(C)CC1 | inconclusive: 31.6 µM [inhibitor, single point]
CCCOc1ccc(-c2nnc(-c3cccs3)o2)cc1 | inconclusive: 17.8 µM [inhibitor, partial curve]
Cc1cc(C)c(NC(=O)CSc2nccn2C)c(C)c1 | inactive
CCOC(=O)/C(C#N)=C\C1=C(N2CCCC2)CC(C)(C)OC1 | inconclusive: 25.1 µM [inhibitor, partial curve]
CCOc1ccccc1CN(CCc1ccc2c(c1)OCO2)Cc1ccccn1 | inconclusive: 31.6 µM [inhibitor, single point]
CC(C)CN1CCNC(=O)C1CC(=O)NCc1cnn(-c2cccc(F)c2)c1 (stereo unspecified) | inconclusive: 35.5 µM [inhibitor, single point]
CCN(Cc1ccccc1)c1ccc(/C=N/N2CCOCC2)cc1 | inconclusive: 28.2 µM [inhibitor, single point]
CCCCn1c(SCc2ccc(C(=O)OC)o2)nc2cc(S(N)(=O)=O)ccc21 | inactive
CN(C)c1ccc(-c2nccc(NCc3ccccc3)n2)cc1 | inconclusive: 28.2 µM [inhibitor, partial curve]
COC(=O)c1c(CSc2cccc(C)c2)noc1C(=O)NCc1ccco1 | inactive
CC(=O)Nc1ccc(NC(=O)C(=O)c2cn(CC(=O)N3CCCCC3)c3ccccc23)cc1 | inconclusive: 35.5 µM [inhibitor, single point]
c1coc(CNc2nc(-c3cccs3)cs2)c1 | inactive
CC1(C)Cc2c(c(N3CCOCC3)nc3snc(N)c23)CO1 | inconclusive: 35.5 µM [inhibitor, single point]
C=CCN(CC=C)C(=S)NC(=O)c1ccc([N+](=O)[O-])cc1 | inconclusive: 2.82 µM [inhibitor, partial curve, poor fit]
Cc1ccc(C2=NOC(=O)/C2=C\c2ccc(C)o2)cc1 | inactive
CON(C)S(=O)(=O)c1ccc2c(c1)NC(=O)C1CCCN21 (stereo unspecified) | inconclusive: 39.8 µM [inhibitor, single point]
O=C1c2oc3ccc(F)cc3c(=O)c2C(c2cccc(O)c2)N1CCCN1CCOCC1 (stereo unspecified) | inconclusive: 35.5 µM [inhibitor, single point]
CCCCC(=O)Nc1cc(-c2nc3ncccc3o2)ccc1C | inconclusive: 31.6 µM [inhibitor, partial curve]
COc1ccc(NC(=O)C2CC(c3ccc(OC)c(OC)c3)=NO2)cc1OC (stereo unspecified) | inconclusive: 31.6 µM [inhibitor, single point]
COc1cc(CN2CCN(Cc3ccc(C)cc3)C(CCO)C2)cc(OC)c1O (stereo unspecified) | inactive
CC(/C=N/n1c(-c2ccncc2)n[nH]c1=S)=C\c1ccco1 | inconclusive: 28.2 µM [inhibitor, single point]
